Measured values as given in PubChem BioAssay AID1468 (National Center for Advancing Translational Sciences (NCATS), 2008).
Several values for one entry are separate records, joined by “and”; a condition that tells them apart may be missing. Equal values may be shown once. Screen size: about 280,000 compounds; about 1,100 (0.39%) were called active. A call without a number means that no potency is given here. The shares of active, inactive and inconclusive entries below differ from those in the screen. The call rests on the fitted dose curve; in most records, active means well fitted inhibition curve with a large enough effect; inconclusive means small, poorly fitted or top-dose-only effect, or effect the other way; inactive means flat fitted curve, though single readings scatter. Potencies beside an inconclusive call are fits to weak or partial responses and may not hold up.

molecular target: Microtubule-associated protein tau (Homo sapiens) (UniProt P10636); test: qHTS for Inhibitors of Tau Fibril Formation, Fluorescence Polarization; settings: K18 P301L tau heparin fibrillization, Alexa594 FP, 6 h; series mostly up to 57.7 µM; further: nearly all actives have a fitted effect of over 55% in size
Outline: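 Quantitative HTS format: compounds meet 15 uM recombinant K18 P301L tau and Alexa 594-tau tracer in 100 mM sodium acetate pH 7; 20 uM heparin triggers fibrillization at 37 C over 6 hr; FP gives the signal.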
Potency means the concentration at half of the fitted maximal effect; tags describe the fitted curve by direction and shape.

UniProt P10636, sequence (P10636 whole entry, looked up): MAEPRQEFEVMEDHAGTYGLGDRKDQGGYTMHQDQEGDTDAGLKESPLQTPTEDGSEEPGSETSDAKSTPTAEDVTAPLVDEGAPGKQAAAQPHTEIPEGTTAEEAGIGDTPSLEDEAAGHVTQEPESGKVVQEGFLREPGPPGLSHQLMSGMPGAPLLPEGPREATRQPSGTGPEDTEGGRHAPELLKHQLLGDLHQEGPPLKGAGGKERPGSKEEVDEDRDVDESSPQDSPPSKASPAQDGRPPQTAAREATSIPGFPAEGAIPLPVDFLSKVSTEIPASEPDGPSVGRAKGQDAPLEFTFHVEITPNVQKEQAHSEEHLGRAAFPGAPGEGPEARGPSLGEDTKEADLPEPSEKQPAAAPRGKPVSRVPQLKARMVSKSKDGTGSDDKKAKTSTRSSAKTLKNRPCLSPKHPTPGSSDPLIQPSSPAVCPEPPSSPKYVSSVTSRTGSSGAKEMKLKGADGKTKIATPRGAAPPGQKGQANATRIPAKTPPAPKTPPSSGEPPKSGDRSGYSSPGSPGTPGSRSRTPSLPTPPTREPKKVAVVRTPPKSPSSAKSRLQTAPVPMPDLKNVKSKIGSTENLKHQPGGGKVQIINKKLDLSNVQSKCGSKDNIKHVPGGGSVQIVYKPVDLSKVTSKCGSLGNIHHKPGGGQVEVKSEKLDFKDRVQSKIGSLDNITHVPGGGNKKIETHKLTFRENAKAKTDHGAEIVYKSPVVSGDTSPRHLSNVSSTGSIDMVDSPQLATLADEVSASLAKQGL

Row | Structure (SMILES) | Potency
1 | O=C(N/N=C/c1ccc(OCc2ccccc2)cc1)c1ccncc1 | inactive
2 | COc1ccc(-c2ccc(-c3noc(-c4ccccc4C)n3)c(OC)n2)cc1 | inconclusive: 0.0251 µM [inhibitor, full curve, poor fit]
3 | Cn1c(=O)c2c(nc(N/N=C/c3ccc(OC(=O)c4ccco4)cc3)n2Cc2ccccc2Cl)n(C)c1=O | inactive
4 | CCOc1cc(C(=O)Nc2ccc3c(c2)OCO3)ccc1OCCOc1ccccc1Cl | inactive
5 | O=C(Nc1cc(-c2ccccc2F)nn1-c1ccccc1)c1ccccc1Br | inconclusive: 17.8 µM [inhibitor, single point]
6 | O=C(COc1ccccc1F)Nc1c(C(=O)Nc2cccc(F)c2)oc2ccccc12 | inconclusive: 14.1 µM [inhibitor, partial curve]
7 | CC(=O)c1cc(NC(=O)c2cccc(C(F)(F)F)c2)c(=O)oc1C | active: 35.5 µM
8 | CCOc1ccc2nc(NC(=O)c3cnc(C)cn3)sc2c1 | inconclusive: 44.7 µM [activator, single point]
9 | O=C(NCc1ccccc1)c1ccc(S(=O)(=O)Nc2cccc(C(F)(F)F)c2)cc1 | inconclusive: 12.6 µM [inhibitor, partial curve]
10 | CCN(CC)c1ccc(/C=N/N=C(c2ccccc2)c2ccccc2)c(O)c1 | inconclusive: 1.58 µM [activator, full curve, poor fit]
11 | O=c1c2c3c(sc2ncn1/N=C/c1ccc([N+](=O)[O-])o1)CCCC3 | inactive
12 | CN(C)CCCN(C(=O)c1cccc(N2C(=O)CCC2=O)c1)c1nc2cc3c(cc2s1)OCO3 | inactive
13 | Cc1onc(-c2ccccc2)c1C(=O)NC(=S)NNC(=O)c1cccnc1 | inactive
14 | S=c1[nH]nc(-c2ccncc2)n1CC1CCCO1 (stereo not drawn) | inactive
15 | CCN1C(=O)C(O)(CC(=O)/C=C/C=C/c2ccccc2)c2ccccc21 (stereo not drawn) | inactive
16 | O=C(c1cc(COc2ccc(F)cc2Cl)on1)N1CCC(OCc2cccnc2)CC1 | inconclusive: 6.31 µM [inhibitor, partial curve]
17 | CCc1ccc(NC(=O)C(=O)NCC(c2cccnc2)N2CCc3ccccc3C2)cc1 (stereo not drawn) | inactive
18 | O=C1c2cccc3cccc(c23)C(=O)N1c1ccncc1 | inactive
19 | COCc1cc(C)nc2c1C(=O)NC(c1ccc(Br)cc1)N2Cc1ccccc1 (stereo not drawn) | inactive
20 | COCC(=O)Nc1ccc(C(C)C)cc1 | inactive
21 | N#Cc1cc(Oc2cccnc2)c(Oc2cccnc2)cc1C#N | inactive
22 | O=C1Nc2ccc(I)cc2/C1=C/c1cc(Br)c(O)c(Br)c1 | inactive and inconclusive: 224 nM [activator, full curve, poor fit] and inconclusive: 126 nM [activator, full curve, poor fit]
23 | Cn1nc(-c2ccc(Cl)cc2)c2cc(C(=O)NCCCN3CCOCC3)sc21 | inconclusive: 15.8 µM [inhibitor, partial curve]
24 | O=C(Oc1cccc(Nc2ncnc3ccccc23)c1)c1ccccc1Cl | inconclusive: 14.1 µM [inhibitor, partial curve]

Row | Structure (SMILES) | Potency
25 | Cc1[nH]nc(N)c1-c1ccccc1 | inactive
26 | Cc1ccc(/C=C/C(=O)Nc2cccc3ncccc23)o1 | inactive
27 | COc1ccc(C2CC(c3c(-c4ccccc4)c4cc(Cl)ccc4[nH]c3=O)=NN2S(C)(=O)=O)cc1 (stereo not drawn) | inconclusive: 14.1 µM [inhibitor, partial curve]
28 | Cc1ccc(S(=O)(=O)c2nnn3c2nc(NC2CCCCC2)c2sccc23)cc1 | inconclusive: 14.1 µM [inhibitor, partial curve]
29 | CCCC(=O)OCCNc1cc(SCc2ccco2)c2nonc2c1[N+](=O)[O-] | inconclusive: 14.1 µM [inhibitor, partial curve]
30 | CCN1C(=O)c2ccccc2S(=O)c2ccc(C(=O)N3CCCCCC3)cc21 (stereo not drawn) | inactive
31 | COc1ccc(S(=O)(=O)Nc2ccc(-n3cccc3)cc2)cc1 | inconclusive: 44.7 µM [inhibitor, single point]
32 | COc1cc(/C=C/C(=O)Nc2nnc(C(C)(C)C)s2)cc(OC)c1OC | inactive
33 | COc1cc2ccc(=O)oc2cc1O | inactive
34 | O=C1N/C(=C/c2ccc(N3CCOCC3)cc2)C(=O)N1Cc1ccc(F)cc1 | inconclusive: 44.7 µM [activator, single point]
35 | c1ccc(-c2noc(CSc3nnnn3C3CCCCC3)n2)cc1 | inactive
36 | O=C1NC(=Nc2ccc(O)cc2)S/C1=C\C=C\c1ccco1 | inconclusive: 39.8 µM [inhibitor, single point]
37 | COc1cccc(C2/C(=C(/O)c3ccc(C)cc3)C(=O)C(=O)N2Cc2ccco2)c1 (stereo not drawn) | inconclusive: 44.7 µM [inhibitor, single point]
38 | COc1ccc(C(=O)NCC2CCCO2)cc1 (stereo not drawn) | inactive
39 | CC(C)(C)OC(=O)NCCCC[C@H](NC(=O)c1[nH]cnc1C(=O)Nc1ccccc1)C(=O)OC(C)(C)C | inconclusive: 35.5 µM [inhibitor, single point]
40 | CCCSC1=NC2(CCN(C(=O)NC3CCCCC3)CC2)N=C1c1ccc(Cl)cc1 | inactive
41 | Cc1cccc(CSc2nc(-c3cccc(C)c3)nc3c2Cc2c(CO)cnc(C)c2O3)c1 | inactive
42 | CNC(=O)c1sc(-c2ccccc2)nc1C | inactive
43 | O=C(N/N=C/c1cn(-c2ccccc2)nc1-c1cc2ccccc2o1)c1ccncc1 | inconclusive: 11.2 µM [inhibitor, partial curve]
44 | CC(=O)OCC1=C(C(=O)O)N2C(=O)C(NC(=O)c3ccc(COc4ccc(Cl)cc4)o3)C2SC1 (stereo not drawn) | inconclusive: 39.8 µM [inhibitor, single point]
45 | COc1c(C)cccc1C(=O)NC(=S)Nc1cccc2nsnc12 | inconclusive: 31.6 µM [inhibitor, single point]
46 | Cc1ccc(/C=N/n2c(C)nnc2C)o1 | inactive
47 | COc1ccc(Cc2noc(CN(C)Cc3cccc(-n4cccn4)c3)n2)cc1OC | inconclusive: 28.2 µM [inhibitor, partial curve, poor fit]
48 | O=C(CCCOc1ccccc1)NCCc1ccccc1 | inactive
